Laboratory results: patent US10874745B2, “Antimicrobial peptides and methods of treating gram-negative pathogens: polar and non-polar face analogs” (priority 2017, dated 2020)
Several values for one entry are separate records, joined by “and”; a condition that tells them apart may be missing. Equal values may be shown once. Read-outs that look alike come from different tables or passages of the source. Part of at least one peptide drawing is inferred or uncertain, most often the ends. Non-standard residues stand in square brackets, D forms with d. Residues, ends and D or L forms follow the SMILES beside them. dDap = NC[C@@H](N)C(=O)O

Key:
[1] = test system: clinical isolates of Pseudomonas aeruginosa; format: cell-based; details: geometric mean, 6 clinical isolates of P. aeruginosa
[2] = RP-HPLC temperature profiling, peptide self-association; format: physicochemical; details: for Tp: 0.25% B/min from 10% B (Table 4); for Tp, temperature of maximum retention time: pH 2 (Table 2)
[3] = test system: A. baumannii clinical isolates; test: MIC, microtiter dilution in Mueller Hinton medium; format: cell-based; details: geometric mean, 7 clinical isolates of A. baumannii
[4] = Circular dichroism spectroscopy, helical structure; format: physicochemical; details: for 50% TFE % Helix / Benign % Helix: relative to D38 in 50% TFE; for 50% TFE [θ]222: 222 nm, benign buffer containing 50% TFE; for 50% TFE [θ]222 / Benign [θ]222: 5° C.; for Benign % Helix: benign buffer; for Benign [θ]222: mean residue molar ellipticity at 222 nm, benign buffer pH 7.0
[5] = RP-HPLC retention time as measure of overall peptide hydrophobicity; format: physicochemical; details: for Hydrophobicity tR: RP-HPLC at pH 2, 25 C; for tR, relative hydrophilicity/hydrophobicity: Zorbax SB-C8, 0.5% B/min from 2% B, 30° C. (Table 3)
Text: Retention behavior in RP-HPLC is an excellent method to represent overall peptide hydrophobicity. Retention times of peptides are highly sensitive to the conformational status of the peptides upon interaction with the hydrophobic environment of the column matrix (Jiang, Z., et al., Chem. Biol. Drug Des. 2011; Chen, Y., et al., J. Peptide Research 2002, supra). The non-polar faces of amphipathic alpha-helical and amphipathic cyclic beta-sheet peptides represent a preferred binding domain for interaction with the hydrophobic matrix of the reversed-phase column (Zhou, N. E., et al., Peptide Research 1990, 3:8-20). In this study, the observed peptide hydrophobicity was determined by RP-HPLC retention time as described in the methods section and are relative hydrophobicities because they are dependent on the TFA concentration and organic solvent in the mobile phase, gradient rate, temperature, flow rate and the column used. […]

[6] = test system: A. baumannii strains resistant to Polymyxin B and Colistin; format: cell-based; details: geometric mean, 7 A. baumannii strains resistant to polymyxin B and colistin
[7] = test system: Methicillin-resistant Staphylococcus aureus (MRSA) strains; format: cell-based; details: geometric mean, 8 MRSA strains
[8] = test system: Methicillin-sensitive Staphylococcus aureus (MSSA) strains; format: cell-based; details: geometric mean, 9 MSSA strains
[9] = 0.25% B/min from 10% B, relative to RC (Table 4)
[10] = 5-77° C., 0.5% acetonitrile/min
[11] = 5-77° C., 0.5% acetonitrile/min, pH 2, relative to control peptide RC (Table 2)

| Compound | MICGM [1] [µM] | Tp [2] [°C] | PA, self-association parameter [2, 9] | Tp, temperature of maximum retention time [2, 10] [°C] | PA, self-association parameter [2, 11] [min] | MICGM [3] [µM] | Δ[θ]222 TFE-benign [4] | 50% TFE % Helix [4] [%] | 50% TFE [θ]222 [4] | Benign % Helix [4] [%] | Benign [θ]222 [4] | Hydrophobicity tR [5] [min] | MICGM [6] [µM] | MICGM [7] [µM] | MICGM [8] [µM] | tR, relative hydrophilicity/hydrophobicity [5] [min] | MICGM ([6]; listed as D88 (6 Lys-2)) [µM] | MICGM ([6]; listed as D105 (6 Dpr-1)) [µM] | MICGM ([6]; listed as D106 (6 Dpr-2)) [µM] |
| --- | --- | --- | --- | --- | --- | --- | --- | --- | --- | --- | --- | --- | --- | --- | --- | --- | --- | --- | --- |
| CC(=O)N[C@H](C)C(=O)N[C@H](CC(C)C)C(=O)N[C@H](CCCCN)C(=O)N[C@H](CO)C(=O)N[C@H](CC(C)C)C(=O)N[C@H](CC(C)C)C(=O)N[C@H](CCCCN)C(=O)N[C@@H](C(=O)N[C@H](CC(C)C)C(=O)N[C@H](CO)C(=O)N[C@H](CCCCN)C(=O)N[C@H](C)C(=O)N[C@H](C)C(=O)N[C@H](C)C(=O)N[C@H](C)C(=O)N[C@H](C)C(=O)N[C@H](CC(C)C)C(=O)N[C@H](CCCCN)C(=O)N[C@@H](C(=O)N[C@H](CC(C)C)C(=O)N[C@H](CC(C)C)C(=O)N[C@H](CCCCN)C(=O)N[C@H](C)C(=O)N[C@H](CC(C)C)C(=O)N[C@H](CO)C(=O)N[C@H](CCCCN)C(N)=O)[C@H](C)O)[C@H](C)O [Peptide D37] | 9.2 | 53 | 37 min and 37.0 min | 53 | 18.5 | 3.5 | 11,800 deg cm2/dmol | 66.7 | 25,000 deg cm2/dmol | 35.2 | 13,200 deg cm2/dmol | 112.7 | 3.2 | – | – | – | – | – | – |
| CC(=O)N[C@H](C)C(=O)N[C@H](CC(C)C)C(=O)N[C@H](CCCCN)C(=O)N[C@H](CO)C(=O)N[C@H](CC(C)C)C(=O)N[C@H](CC(C)C)C(=O)N[C@H](CCCCN)C(=O)N[C@@H](C(=O)N[C@H](CC(C)C)C(=O)N[C@H](CO)C(=O)N[C@H](C)C(=O)N[C@H](C)C(=O)N[C@H](C)C(=O)N[C@H](CCCCN)C(=O)N[C@H](CCCCN)C(=O)N[C@H](C)C(=O)N[C@H](CC(C)C)C(=O)N[C@H](C)C(=O)N[C@@H](C(=O)N[C@H](CC(C)C)C(=O)N[C@H](CC(C)C)C(=O)N[C@H](CCCCN)C(=O)N[C@H](C)C(=O)N[C@H](CC(C)C)C(=O)N[C@H](CO)C(=O)N[C@H](CCCCN)C(N)=O)[C@H](C)O)[C@H](C)O [Peptide D38] | 36.8 | – | – | 45 | 19.5 | 1.2 | 14,650 deg cm2/dmol | 100.0 | 37,450 deg cm2/dmol | 60.9 | 22,800 deg cm2/dmol | 112.5 | 1.2 | 12.3 | 10.7 | – | – | – | – |
| CC(=O)N[C@H](C)C(=O)N[C@H](CC(C)C)C(=O)N[C@H](CCCCN)C(=O)N[C@H](CO)C(=O)N[C@H](CC(C)C)C(=O)N[C@H](CC(C)C)C(=O)N[C@H](C)C(=O)N[C@@H](C(=O)N[C@H](CC(C)C)C(=O)N[C@H](CO)C(=O)N[C@H](CCCCN)C(=O)N[C@H](C)C(=O)N[C@H](C)C(=O)N[C@H](CCCCN)C(=O)N[C@H](CCCCN)C(=O)N[C@H](C)C(=O)N[C@H](CC(C)C)C(=O)N[C@H](CCCCN)C(=O)N[C@@H](C(=O)N[C@H](CC(C)C)C(=O)N[C@H](CC(C)C)C(=O)N[C@H](C)C(=O)N[C@H](C)C(=O)N[C@H](CC(C)C)C(=O)N[C@H](CO)C(=O)N[C@H](CCCCN)C(N)=O)[C@H](C)O)[C@H](C)O [Peptide D39] | 5.8 | – | – | 49 | 18.5 | 1.5 | 12,450 deg cm2/dmol | 96.5 | 36,150 deg cm2/dmol | 63.2 | 23,700 deg cm2/dmol | 116.6 | 1.5 | 5.2 | 5.8 | – | – | – | – |
| CC(=O)N[C@H](C)C(=O)N[C@H](CC(C)C)C(=O)N[C@H](C)C(=O)N[C@H](CO)C(=O)N[C@H](CC(C)C)C(=O)N[C@H](CC(C)C)C(=O)N[C@H](CCCCN)C(=O)N[C@@H](C(=O)N[C@H](CC(C)C)C(=O)N[C@H](CO)C(=O)N[C@H](CCCCN)C(=O)N[C@H](C)C(=O)N[C@H](C)C(=O)N[C@H](CCCCN)C(=O)N[C@H](CCCCN)C(=O)N[C@H](C)C(=O)N[C@H](CC(C)C)C(=O)N[C@H](CCCCN)C(=O)N[C@@H](C(=O)N[C@H](CC(C)C)C(=O)N[C@H](CC(C)C)C(=O)N[C@H](CCCCN)C(=O)N[C@H](C)C(=O)N[C@H](CC(C)C)C(=O)N[C@H](CO)C(=O)N[C@H](C)C(N)=O)[C@H](C)O)[C@H](C)O [Peptide D40] | 5.2 | – | – | 49 | 18.7 | 2.6 | 13,400 deg cm2/dmol | 95.5 | 35,750 deg cm2/dmol | 59.7 | 22,350 deg cm2/dmol | 117.5 | 3.5 | 8.4 | 8.5 | – | – | – | – |
| CC(=O)N[C@H](CCCCN)C(=O)N[C@H](CC(C)C)C(=O)N[C@H](CCCCN)C(=O)N[C@H](CO)C(=O)N[C@H](CC(C)C)C(=O)N[C@H](CC(C)C)C(=O)N[C@H](CCCCN)C(=O)N[C@@H](C(=O)N[C@H](CC(C)C)C(=O)N[C@H](CO)C(=O)N[C@H](C)C(=O)N[C@H](C)C(=O)N[C@H](CCCCN)C(=O)N[C@H](CCCCN)C(=O)N[C@H](CCCCN)C(=O)N[C@H](CCCCN)C(=O)N[C@H](CC(C)C)C(=O)N[C@H](C)C(=O)N[C@@H](C(=O)N[C@H](CC(C)C)C(=O)N[C@H](CC(C)C)C(=O)N[C@H](CCCCN)C(=O)N[C@H](C)C(=O)N[C@H](CC(C)C)C(=O)N[C@H](CO)C(=O)N[C@H](CCCCN)C(N)=O)[C@H](C)O)[C@H](C)O [Peptide D88, Ac-KL(Lys)SLL(Lys)TLSAAK(Lys)(Lys)KLATLL(Lys)ALS(Lys)-amide] (Ac-[dK][dL][dK][dS][dL][dL][dK][dT][dL][dS][dA][dA][dK][dK][dK][dK][dL][dA][dT][dL][dL][dK][dA][dL][dS][dK]-NH2) | – | 25 | 6.9 min | – | – | – | – | – | – | – | – | – | 0.4 | – | – | 70.7 | 0.4 | – | – |
| CC(=O)N[C@H](CCCCN)C(=O)N[C@H](CC(C)C)C(=O)N[C@H](CN)C(=O)N[C@H](CO)C(=O)N[C@H](CC(C)C)C(=O)N[C@H](CC(C)C)C(=O)N[C@H](CN)C(=O)N[C@@H](C(=O)N[C@H](CC(C)C)C(=O)N[C@H](CO)C(=O)N[C@H](CN)C(=O)N[C@H](C)C(=O)N[C@H](CCCCN)C(=O)N[C@H](C)C(=O)N[C@H](C)C(=O)N[C@H](CCCCN)C(=O)N[C@H](CC(C)C)C(=O)N[C@H](CN)C(=O)N[C@@H](C(=O)N[C@H](CC(C)C)C(=O)N[C@H](CC(C)C)C(=O)N[C@H](CN)C(=O)N[C@H](C)C(=O)N[C@H](CC(C)C)C(=O)N[C@H](CO)C(=O)N[C@H](CN)C(N)=O)[C@H](C)O)[C@H](C)O [Peptide D105, Ac-KL(Dpr)SLL(Dpr)TLS(Dpr)AKAAKL(Dpr)TLL(Dpr)ALS(Dpr)-amide] | – | 15 | 2.8 min | – | – | – | – | – | – | – | – | – | – | – | – | 65.6 | – | 1.2 | – |
| CC(=O)N[C@H](CCCCN)C(=O)N[C@H](CC(C)C)C(=O)N[C@H](CN)C(=O)N[C@H](CO)C(=O)N[C@H](CC(C)C)C(=O)N[C@H](CC(C)C)C(=O)N[C@H](CN)C(=O)N[C@@H](C(=O)N[C@H](CC(C)C)C(=O)N[C@H](CO)C(=O)N[C@H](C)C(=O)N[C@H](C)C(=O)N[C@H](CCCCN)C(=O)N[C@H](CN)C(=O)N[C@H](CN)C(=O)N[C@H](CCCCN)C(=O)N[C@H](CC(C)C)C(=O)N[C@H](C)C(=O)N[C@@H](C(=O)N[C@H](CC(C)C)C(=O)N[C@H](CC(C)C)C(=O)N[C@H](CN)C(=O)N[C@H](C)C(=O)N[C@H](CC(C)C)C(=O)N[C@H](CO)C(=O)N[C@H](CN)C(N)=O)[C@H](C)O)[C@H](C)O [Peptide D106, Ac-KL(Dpr)SLL(Dpr)TLSAAK(Dpr)(Dpr)KLATLL(Dpr)ALs(Dpr)-amide] (Ac-[dK][dL][dDap][dS][dL][dL][dDap][dT][dL][dS][dA][dA][dK][dDap][dDap][dK][dL][dA][dT][dL][dL][dDap][dA][dL][dS][dDap]-NH2) | – | 15 | 2.5 min | – | – | – | – | – | – | – | – | – | 0.8 | – | – | 67.0 | – | – | 0.8 |
